± gives the standard deviation of the averaged measurements. This is one part of the list.
test system: PfAP2-EXP AP2 domain (GST-tagged); test: gcPBM binding intensity (ln(normalized median fluorescence intensity)); higher = stronger DNA binding
Procedure, shortened: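 DNA-binding domains from P. falciparum, fused to GST and produced in E. coli, were put on an Agilent 4 × 180k double-stranded probe array for 1 h in 1× PBS holding 1% milk, 0.2 mg/ml BSA, 0.5% salmon testes DNA and 0.03% Triton X-100. Probes were primer-extended, 36 bp long and drawn from intergenic genomic regions, with negative controls included. After Alexa488 anti-GST antibody detection and a 488 nm scan, binding intensity was set as the highest Masliner-normalised natural-log median intensity across replicate spots of either probe orientation.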

Which “gcPBM binding intensity (ln)” value does the source give for “CTGTTTTACTTTAGTAGTACAATAAAAATATAAAAA [XGTACX_site2934]” here?
The value was 8.57 ± 0.19.

With “AAAAAAAAAAAACATACACACAAATATATACATACA [CACACA_site4011]” as the sequence, how does the “gcPBM binding intensity (ln)” value read?
Its value is 8.54 ± 0.69.

For “TAAATTTGTGGGATTTCACACAGGTTTATTTACATT [CACACA_site5455]”, which “gcPBM binding intensity (ln)” value is on record?
The value was 8.13 ± 0.45.

For “TTCAGAGAATAAAAATGTACATATAATATTTTAAAA [XGTACX_site577]”, which “gcPBM binding intensity (ln)” value is on record?
The value was 8.37 ± 0.37.

For “ATGTAGGTTAATTATTGTACGTAGGGGGTGTATATT [XGTACX_site3973]”, which “gcPBM binding intensity (ln)” value is on record?
The value was 10.2 ± 0.48.

Which “gcPBM binding intensity (ln)” value does the source give for “CTCTTGTCATTTTGCACACACACATGTATAGGTTAT [CACACA_site3057]” here?
Its value is 9.39 ± 0.23.

How did the “gcPBM binding intensity (ln)” value turn out when “GTTTACTAATATTGCACACGAATATGAAAAAGAGAA [CACACA_site2897]” was run?
The value was 8.88 ± 0.25.

With “TTTCTAATTTATATCACACACATATATTTATAGTAA [CACACA_site6280]” as the sequence, how does the “gcPBM binding intensity (ln)” value read?
Its value is 8.43 ± 0.32.

“TTGCTTATTAAATGGGGTACATTATATATATATATA [XGTACX_site2515]” was tested. Which “gcPBM binding intensity (ln)” value did it give?
The value was 9.89 ± 0.32.

“GTGTTAACTATTATGAGTACTTATGTATTAATTCAT [XGTACX_site7767]” was tested. Which “gcPBM binding intensity (ln)” value did it give?
The value was 8.62 ± 0.19.

For “ATACCTGTTGTGTTACGTACATAATTTTAATGTTTG [XGTACX_site8181]”, which “gcPBM binding intensity (ln)” value is on record?
Its value is 8.77 ± 0.41.

Which “gcPBM binding intensity (ln)” value does the source give for “AAATTCAATTTGCGCTGTACATGAAGATATAAATTT [XGTACX_site4844]” here?
The value was 9.02 ± 0.52.

Which “gcPBM binding intensity (ln)” value does the source give for “TATTTTTTAAAAAATTATAAATAAAATTATATTACG [CACACA_negctrl_site324]” here?
The value was 8.19 ± 0.43.

How did the “gcPBM binding intensity (ln)” value turn out when “TATATATATAAATACACACACACACCCCAAAGCGTA [CACACA_site4211]” was run?
The value was 9.18 ± 0.46.

For “AAAAAAAACACGCGCACACACACACCCACAGACACA [CACACA_site5253]”, which “gcPBM binding intensity (ln)” value is on record?
Its value is 8.62 ± 0.5.

For “ACAGTATATTAAAAAATACACACGTATTATATCTAC [CACACA_site2640]”, which “gcPBM binding intensity (ln)” value is on record?
The value was 8.27 ± 0.37.

How did the “gcPBM binding intensity (ln)” value turn out when “TATAATATATTCACTCGTACATATTTAATAATATCT [XGTACX_site6209]” was run?
The value was 8.54 ± 0.42.

For “ATTTTATTTTTGTGCACACTGATAAATTGAAAAGAG [CACACA_site2948]”, which “gcPBM binding intensity (ln)” value is on record?
Its value is 9.11 ± 0.18.

How did the “gcPBM binding intensity (ln)” value turn out when TATTACACATATTATGTGCACATATATAATCAATAT was run?
The value was 9.04 ± 0.092.

Which “gcPBM binding intensity (ln)” value does the source give for “AAAAAAAAAAATTAAAGTACTAATTAAAATTATATG [XGTACX_site5289]” here?
The value was 8.17 ± 0.35.

Which “gcPBM binding intensity (ln)” value does the source give for “TATATATATATAATATGTACATATATTAAGCATTTT [XGTACX_site4470]” here?
The value was 9.53 ± 0.042.

Which “gcPBM binding intensity (ln)” value does the source give for “ATAAATTTTTTATGAACACACAAATACCCACGCTCA [CACACA_site2659]” here?
The value was 8.79 ± 0.43.

With “TTTTAATTAAATAAATGTACTCATTCTATTATTTAT [XGTACX_site3032]” as the sequence, how does the “gcPBM binding intensity (ln)” value read?
Its value is 8.41 ± 0.35.

For “AATAAAAAACATGAAAGTACTTTAAAAAAGGTAATA [XGTACX_site1897]”, which “gcPBM binding intensity (ln)” value is on record?
Its value is 8.9 ± 0.45.

For “AAGTACATACATAAAACACACACATATATATATATA [CACACA_site8541]”, which “gcPBM binding intensity (ln)” value is on record?
Its value is 10.2 ± 0.17.

“AATATATAAATCAATAGTACATATATATATATATAT [XGTACX_site3898]” was tested. Which “gcPBM binding intensity (ln)” value did it give?
Its value is 10 ± 0.35.

With “ATTAAGTACTAAAAAGTGCAGTTCGGTACTGTGCTT [GTGCAC_site9755]” as the sequence, how does the “gcPBM binding intensity (ln)” value read?
Its value is 8.42 ± 0.014.

With “ATGTATAAACAAAAGGGTACATATATATATATATAT [XGTACX_site2087]” as the sequence, how does the “gcPBM binding intensity (ln)” value read?
The value was 10.1 ± 0.49.

For “AGAAAAATTACAAAATGTACATAATGTGTTATTAAT [XGTACX_site7877]”, which “gcPBM binding intensity (ln)” value is on record?
The value was 8.55 ± 0.46.

“TTATATAAAGAATGTACACACAGAAATGCACCCACA [CACACA_site2282]” was tested. Which “gcPBM binding intensity (ln)” value did it give?
Its value is 9.49 ± 0.23.

With “ATTAAATATGAGGGAACACACACATGATATATAAAT [CACACA_site8755]” as the sequence, how does the “gcPBM binding intensity (ln)” value read?
Its value is 8.94 ± 0.38.

Which “gcPBM binding intensity (ln)” value does the source give for “TTATATTTATAAAGGTGTACCTTAAAATGATTTTAC [XGTACX_site3774]” here?
Its value is 8.19 ± 0.25.

How did the “gcPBM binding intensity (ln)” value turn out when “ATATATTATATTAATTGTACATAAAAAAGAGAAAAA [XGTACX_site3366]” was run?
The value was 8.71 ± 0.48.

With “AAAATTAAATAAAAATGTACAGAAATATTATATGAA [XGTACX_site5695]” as the sequence, how does the “gcPBM binding intensity (ln)” value read?
Its value is 8.76 ± 0.59.

“CCAAAAAATATATGTAGTACTACATTATTAAATATG [XGTACX_site5128]” was tested. Which “gcPBM binding intensity (ln)” value did it give?
Its value is 8.93 ± 0.37.

“TTTTTTTTTTTTTCTTCACACACAGTACTACTATTT [CACACA_site8759]” was tested. Which “gcPBM binding intensity (ln)” value did it give?
Its value is 8.61 ± 0.49.

How did the “gcPBM binding intensity (ln)” value turn out when “TTAGCTTTTTTTTAAACATGCAACTACTTGATCCAC [TGCATGCA_site1017]” was run?
The value was 8.61 ± 0.32.

For “TATTTATTATTATGTACACACTATATTAAAACATAA [CACACA_site4549]”, which “gcPBM binding intensity (ln)” value is on record?
The value was 8.55 ± 0.15.

With “AGTATACGCAGACACACACACACATATATATATATA [CACACA_site1735]” as the sequence, how does the “gcPBM binding intensity (ln)” value read?
The value was 10.2 ± 0.46.

How did the “gcPBM binding intensity (ln)” value turn out when “TATGTGAATCCTAAGTGTACACATCTTACATATATA [XGTACX_site2506]” was run?
Its value is 9.18 ± 0.41.

With “ATAAGATGATTAATTACACACTTTATAGGATATTTA [CACACA_site1711]” as the sequence, how does the “gcPBM binding intensity (ln)” value read?
The value was 8.09 ± 0.34.

“GGTATATGCATAAAGAGTACGTAACTTCTTTTTGTT [XGTACX_site6344]” was tested. Which “gcPBM binding intensity (ln)” value did it give?
Its value is 8.81 ± 0.28.

For “AAATGTGTAAATATAATTAGTTTCACAAAACAAATA [GTGCAC_negctrl_site543]”, which “gcPBM binding intensity (ln)” value is on record?
The value was 8.23 ± 0.4.

For “TATATAATATTCTACACACCAACAACAAACATATAT [CACACA_site567]”, which “gcPBM binding intensity (ln)” value is on record?
The value was 8.91 ± 0.67.

“ATATATATATTTATATGTACATAATATAAAATTTCT [XGTACX_site3720]” was tested. Which “gcPBM binding intensity (ln)” value did it give?
The value was 9.155 ± 0.021.

For “ATATTCTGATTTTAGATGCACTTCGTTAACAAAATA [GTGCAC_site9958]”, which “gcPBM binding intensity (ln)” value is on record?
The value was 8.63 ± 0.34.

For “AAAAGAATAATAATTTATGTATATTAATTAAAGAAT [XGTACX_negctrl_site402]”, which “gcPBM binding intensity (ln)” value is on record?
Its value is 8.34 ± 0.66.

Which “gcPBM binding intensity (ln)” value does the source give for “TTATATATATGTGTATGTACATATATATATATATAT [XGTACX_site1141]” here?
The value was 10.1 ± 0.32.

Which “gcPBM binding intensity (ln)” value does the source give for “TATCATATATTATATGCACACATGTTTTTCAAGAAT [CACACA_site1892]” here?
Its value is 8.88 ± 0.25.

With “AAACGTAACATATATATATATATATATAAGATATAT [CACACA_negctrl_site126]” as the sequence, how does the “gcPBM binding intensity (ln)” value read?
The value was 8.88 ± 0.13.

For “AATGAATATATATAAATATATATATATATATATATA [CACACA_negctrl_site1494]”, which “gcPBM binding intensity (ln)” value is on record?
Its value is 10 ± 0.43.

With “ATAAATCTACACCGCACACAAAAACAACAAATATTA [CACACA_site5396]” as the sequence, how does the “gcPBM binding intensity (ln)” value read?
Its value is 8.64 ± 0.58.

For “ATGTTATTACATAATTGTACATTTTGAGCAATTAAG [XGTACX_site4640]”, which “gcPBM binding intensity (ln)” value is on record?
Its value is 8.28 ± 0.26.

For “ATATTTGTATAAATTGCACACTTTATTTTTTTTAAG [CACACA_site1558]”, which “gcPBM binding intensity (ln)” value is on record?
The value was 8.55 ± 0.42.

“ATACATAAAATTAAAACACACATTTGATTAAATACG [CACACA_site7088]” was tested. Which “gcPBM binding intensity (ln)” value did it give?
Its value is 8.54 ± 0.39.

How did the “gcPBM binding intensity (ln)” value turn out when ATCAAGCGCAATGTGGTGCGTAAATTTTGTATTATA was run?
Its value is 8.74 ± 0.092.

For “GTCTAAGCTTATAGGCGTACACATGAATATGGATGT [XGTACX_site2439]”, which “gcPBM binding intensity (ln)” value is on record?
The value was 8.77 ± 0.46.

— the supplement of paper PMC11417369
